Screen size: about 110,000 compounds; about 230 (0.21%) showed an effect of 50% or more. The list shows a part of the results.
These molecules were tested against DPAP1 (Plasmodium falciparum, UniProt Q8IIJ9) (assay: primary screen, percent inhibition; read by cleavage of a fluorogenic dipeptide substrate; higher = more effect of the substance).
Set-up: species or system P. falciparum D10 trophozoite lysates; single well
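Also: 30 min substrate incubation versus DMSO and 10 µM JCP410 controls.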

Chain of DPAP1 (Q8IIJ9 whole entry, looked up): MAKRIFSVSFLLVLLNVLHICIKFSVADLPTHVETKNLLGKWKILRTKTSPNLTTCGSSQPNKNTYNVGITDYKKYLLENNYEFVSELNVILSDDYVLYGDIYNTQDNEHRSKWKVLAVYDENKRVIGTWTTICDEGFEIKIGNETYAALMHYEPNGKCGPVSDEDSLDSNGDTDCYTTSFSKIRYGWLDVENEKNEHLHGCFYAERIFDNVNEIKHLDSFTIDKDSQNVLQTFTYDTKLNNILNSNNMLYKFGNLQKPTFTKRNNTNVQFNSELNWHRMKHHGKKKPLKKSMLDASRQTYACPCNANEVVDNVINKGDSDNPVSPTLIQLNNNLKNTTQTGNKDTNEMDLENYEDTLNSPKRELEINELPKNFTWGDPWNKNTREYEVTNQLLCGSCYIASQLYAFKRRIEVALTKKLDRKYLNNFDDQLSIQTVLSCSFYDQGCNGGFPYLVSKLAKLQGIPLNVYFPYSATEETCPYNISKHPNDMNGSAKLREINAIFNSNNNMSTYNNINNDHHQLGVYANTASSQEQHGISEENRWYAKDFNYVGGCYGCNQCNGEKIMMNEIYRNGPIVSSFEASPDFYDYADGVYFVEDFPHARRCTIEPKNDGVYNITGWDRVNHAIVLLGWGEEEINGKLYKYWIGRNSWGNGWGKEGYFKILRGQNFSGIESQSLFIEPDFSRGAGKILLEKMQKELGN

| Compound | % Inhibition @ 10 uM |
| --- | --- |
| CCOC(=O)C1=C(CN2CCC(Cc3ccccc3)CC2)NC(=O)NC1c1ccco1 (stereo not drawn) | 0.708% |
| CC(C)(C)NCC(=O)N1CC(=O)Nc2ccccc21 | -4.65% |
| COc1ccc(CNc2nc(-c3cccnc3)nn2S(=O)(=O)c2ccc(Cl)cc2)cc1 | 2.21% |
| COc1ccccc1N(CC(=O)Nc1ccccc1Br)S(=O)(=O)c1ccccc1 | -1.95% |
| O=C(O)CCNCc1c(Cl)cccc1Cl | 3.04% |
| NS(=O)(=O)c1ccc(NC(=O)/C(=C/c2ccccc2Cl)NC(=O)c2ccccc2)cc1 | 2.01% |
| CC1=C(C(=O)Nc2cccnc2)C(c2ccc3c(c2)OCO3)n2nc(-c3cccs3)nc2N1 (stereo not drawn) | -9.77% |
| CC1(C)CC(=O)C(/C=N/c2ccccc2C(=O)c2ccccc2)=C(O)C1 | 1.37% |
| COc1c(C)cc(NS(=O)(=O)c2ccc(SC)cc2)cc1C | 3.99% |
| CN1C(=O)C(=Cc2ccc(SCc3ccco3)o2)C(=O)N(C)C1=O | 16.3% |
| COc1cccc(Nc2cc(C)c3ccccc3n2)c1 | -1.37% |
| CCOc1cc(C(=O)Nc2ccc(C)cn2)cc(OCC)c1OCC | -1.79% |
| O=Cc1ccc(Sc2nnc(-c3ccccc3)n2-c2ccccc2)o1 | -0.597% |
| CC1=C(C(=O)Nc2ccc(F)cc2F)C(c2ccc(F)cc2)C2=C(O)CC(C)(C)CC2=N1 (stereo not drawn) | -2.78% |
| c1ccc(CN2CCN(c3nnc(-n4cccc4)s3)CC2)cc1 | -3.47% |
| COC(C(=O)OC(C)CN(C)C)(c1ccccc1)c1ccccc1 (stereo not drawn) | -5.33% |
| O=C(Cn1cnc2cc(Cl)ccc2c1=O)Nc1ccc2c(c1)OCO2 | 3.53% |
| CCOC(=O)c1cccnc1SCC(=O)O | 0.387% |
| Cc1cccc(C)c1NC(=O)Nc1ccccc1 | -1.93% |
| CC(C)NCC1(O)CC2C3CCC4CC(O)CCC4(C)C3CCC2(C)C1 (stereo not drawn) | 3.32% |
| CC12CCC(C(=O)O)(c3nc4ccccc4nc31)C2(C)C (stereo not drawn) | 3.08% |
| CCN(Cc1ccccc1)C1CCCCC1NS(=O)(=O)c1ccc(Cl)cc1 (stereo not drawn) | -2.4% |
| CCOc1ccc(C2c3c(oc4ccccc4c3=O)C(=O)N2c2nccs2)cc1 (stereo not drawn) | -3.87% |
| O=C1C2CCCN2C(=O)N1CCCCN1CCN(c2ccc(F)cc2)CC1 (stereo not drawn) | 1.64% |
| O=C(O)CSc1nnc(-c2ccncc2)n1-c1ccccc1 | -3.95% |

| Compound | % Inhibition @ 10 uM |
| --- | --- |
| Cc1cc(Cl)ccc1OC(C)C(=O)N1CCN(Cc2ccccc2)CC1 (stereo not drawn) | -8.46% |
| CCOc1ccccc1C(=O)NCc1ccccc1 | -3.26% |
| COc1ccccc1NC(=O)c1sc2nc3c(cc2c1N)CCC3 | 7.71% |
| CCCNC(=O)c1c(NC(=O)c2ccccc2C)sc2c1CCC2 | -5.98% |
| Cc1cc(NC(=O)COc2ccc(F)cc2)n(Cc2ccc(F)cc2)n1 | -1.37% |
| O=C(C1=C(O)C(=O)N(CCCn2ccnc2)C1c1ccc(Cl)cc1)c1cc2ccccc2o1 (stereo not drawn) | 8.74% |
| COc1cc(/C=C2\NC(=S)NC2=O)cc(OC)c1OC | -2.35% |
| O=C(NCC1CCN(Cc2ccc(F)cc2)CC1)C(c1ccccc1)N1Cc2ccccc2C1=O (stereo not drawn) | 1.6% |
| COc1ccc(S(=O)(=O)NCCc2nnc3ccc(SCC(N)=O)nn23)cc1 | 0.857% |
| Cc1cc(C(F)(F)F)nn1CC(=O)N1CCOCC1 | 0.0538% |
| Cc1c(C(c2ccc3c(c2)OCO3)c2c(C)n(C)n(-c3ccccc3)c2=O)c(=O)n(-c2ccccc2)n1C | 3.74% |
| O=c1c(Cl)c(NCCO)cnn1C12CC3CC(CC(C3)C1)C2 | 3.32% |
| O=C(CCCn1sc2ccccc2c1=O)NCCCN1CCc2ccccc2C1 | -1.28% |
| N#Cc1c(SCC(N)=O)nsc1SCc1ccccc1Cl | -2.07% |
| Cc1nc(NC(=O)C2CC3CCC2C3)sc1C (stereo not drawn) | 2.39% |
| COc1cccc(NC(=O)c2cccc([N+](=O)[O-])c2)c1 | 1.91% |
| NS(=O)(=O)c1ccc(NC(=O)[C@@H]2CCCC[C@@H]2C(=O)O)cc1 | -1.84% |
| COc1ccc2nc3c(O)n(CCCN(C)C4CCCCC4)cnc-3c2c1 | 1.64% |
| COc1cccc(C(=O)N2CCC3(CC2)N=C(c2ccc(Cl)cc2)C(=O)N3)c1 | 0.453% |
| C=CCc1cc(/C=C2/C(=N)N3OC(C)=CC3=NC2=O)cc(OC)c1OCCOc1ccccc1Cl | -7.05% |
| CCOc1nc(-c2ccc(Cl)cc2)ccc1-c1noc(-c2ccncc2)n1 | 3.73% |
| COc1ccccc1C(=O)Nc1cccc(Br)c1 | -4.35% |
| CC1CCCCN1S(=O)(=O)c1ccc(Cl)c([N+](=O)[O-])c1 (stereo not drawn) | -0.856% |
| O=C(NCCO)c1nnc(-c2ccccc2)o1 | -4.47% |
| Cc1ccc(NC(=O)c2cnn(-c3ccccc3)c2C)cc1 | 3.72% |

| Compound | % Inhibition @ 10 uM |
| --- | --- |
| Cc1cccc(C)c1NC(=O)Nc1cccc2ccccc12 | -1.62% |
| O=C(O)CCCC(=O)Nc1ccc(F)cc1 | 3.16% |
| Cc1ccc(-c2c(C(=O)NCCC(C)C)oc(=O)c3ccccc23)cc1 | 1.9% |
| CCC(=O)N1C2NC3C4NC2N(C(=O)CC)C1C(N3C(=O)CC)N4C(=O)CC | 4.03% |
| COc1ccccc1OCC(O)CN1CCN(C(=O)c2ccccc2)CC1 (stereo not drawn) | -17.9% |
| CCCCn1/c(=N\C(C)=O)c(C(=O)OCC)cc2c(=O)n3ccccc3nc21 | 1.26% |
| O=C1c2cccc3cccc(c23)C(=O)N1CCOc1ccccc1 | -5.36% |
| CCOC(=O)C1=C(N)OC2=C(C(=O)CCC2)C1c1cc(CN2CCOCC2)cs1 (stereo not drawn) | -2.28% |
| O=C(CCN1C(=O)c2ccccc2C1=O)NC(=O)NC(c1ccccc1)c1ccccc1 | 1.43% |
| CCOC(=O)c1[nH]c(C)c(C(=O)N(C)CCC#N)c1C | -3.44% |
| COc1cc(OC)c(C2C(C#N)=C(N)Oc3[nH]nc(C)c32)c(OC)c1 (stereo not drawn) | -5.14% |
| CCOC(=O)c1[nH]c(C(=O)O)c(CC)c1C | 1.26% |
| CCOC(=O)c1sc(NC(=O)C(C)Oc2ccc(OC)cc2)nc1C (stereo not drawn) | 13.2% |
| COc1cc(C2c3c(oc4ccccc4c3=O)C(=O)N2c2nc(C)c(C(C)=O)s2)ccc1O (stereo not drawn) | 8.51% |
| Cc1c(C(=O)O)oc2c3c(ccc12)OCCO3 | 1.29% |
| COc1cccc(-c2cc(C(=O)Nc3cccnc3)c3ccccc3n2)c1 | -3.24% |
| CCc1ccc(S(=O)(=O)NCC(=O)O)cc1 | 3.67% |
| COCCN1C(=O)C(O)=C(C(=O)c2ccc(Cl)cc2)C1c1ccc(Br)cc1 (stereo not drawn) | -3.45% |
| COC(=O)c1cc(S(=O)(=O)Nc2ccc(C)cn2)c[nH]1 | -8.49% |
| Cc1ccc(C(=O)NCCNS(C)(=O)=O)cc1 | -1.33% |
| C=C(c1ccccc1C)[n+]1ccccc1 | -8.48% |
| CC1CCN(S(=O)(=O)c2ccc(-c3csc(-c4cccnc4)n3)cc2)CC1 | 0.913% |
| CC1=C(C(=O)Nc2ccccn2)C(c2ccc(Br)s2)C2=C(O)CC(C)(C)CC2=N1 (stereo not drawn) | 2.01% |
| Cc1oc(-c2ccc(C(=O)NCCC3=CCCCC3)cc2)nc1CS(=O)(=O)c1ccccc1 | 4.6% |
| O=C(/C=C/c1ccco1)N1CCN(C(c2ccccc2)c2ccccc2)CC1 | 0.222% |

| Compound | % Inhibition @ 10 uM |
| --- | --- |
| C=CCN1C(=O)S/C(=C/c2ccc(-c3ccccc3C#N)o2)C1=O | -4.39% |
| CN1CCCN(Cc2ccco2)CC1 | -6.47% |
| COc1cc(-c2nnc3s/c(=C\c4ccccc4Cl)c(=O)n23)cc(OC)c1OC | 1.96% |
| COc1ccc2nc(NS(=O)(=O)c3ccc(Cl)cc3)c(NCc3ccc4c(c3)OCO4)nc2c1 | -2.19% |
| CCC(Cc1cc(OC)c(C)cc1OC)NC(=O)c1ccc(F)c(F)c1 (stereo not drawn) | -2.39% |
| CCN(CC)C(=O)c1sc(NC(=O)c2cccc(Br)c2)c(C#N)c1C | 0.658% |
| COc1ccc(OCC(=O)Nc2ccc(S(=O)(=O)N3CCCC3)cc2)cc1 | 4.28% |
| CCOc1ccc(CC(=N)C2=C(O)CC(C)(C)CC2=O)cc1OCC | 4.19% |
| CCOC(=O)C1=C(C)N(c2ccc(C)cc2)C(=O)/C1=C\c1ccc(C(C)C)cc1 | -9.17% |
| COc1ccc(C2C3=C(O)CC(C)(C)CC3=NC(C)=C2C(=O)Nc2ccccc2OC)cc1 (stereo not drawn) | -4.03% |
| Cc1cccc2sc(NC3(C(F)(F)F)N=C4SCCN4C3=O)nc12 (stereo not drawn) | 2.57% |
| COc1ccc(C2C(C(C)=O)=C(O)C(=O)N2CCc2ccccc2)cc1 (stereo not drawn) | -1.28% |
| CC12CN3CC(C)(CN(C1)C3C1CCCCC1)C2=O (stereo not drawn) | 2.17% |
| CCC(CC)C(=O)Nc1nnc(Cc2ccc(OC)cc2)s1 | 5.44% |
| COc1ccc(-c2cc(C(=O)Nc3cc(C)on3)no2)cc1OC | -4.43% |
| CCc1c(C#N)c(SCCC(=O)Nc2cccc(OC)c2)nc2c1C(=O)CC(C)(C)C2 | 2.44% |
| CC1CCN(S(=O)(=O)c2ccc(NC(=O)c3c(Cl)cccc3Cl)cc2)CC1 | -4.91% |
| O=C(NCCc1cccc(Cl)c1)c1ccc(Br)o1 | -3.24% |
| CC(C)(CO)NCc1c(OCc2ccccc2)ccc2ccccc12 | 3.56% |
| CS(=O)(=O)N1CCN(c2ccc(NC(=O)c3cccs3)cc2)CC1 | -2.29% |
| O=C(NCc1ccco1)c1ccc(CNS(=O)(=O)c2cccc(Cl)c2)cc1 | 0.795% |
| Cc1ccc(C)c(NC(=O)C2CC(=O)N(c3ccc(Cl)cc3)C2)c1 (stereo not drawn) | 0.812% |
| COc1ccc(/C=c2\sc3nc(-c4ccc(OC(C)C)cc4)nn3c2=O)c(OC)c1 | -1.25% |
| COc1ccc(Cl)cc1NC(=O)CCN1CCN(C)CC1 | -1.28% |
